# “And” between values parts separate entries of the source, which are not always exact repeats. Equal entries are not always repeated. This list was built around the results that the source calls inconclusive (neither active nor inactive); the mix of calls is not that of the screen. For some assays here: Potencies of inconclusive entries are doubtful fits and often do not repeat. The source made the active and inactive calls. Unless noted, calls come from the whole dose curve.
# Experiments:
# [1] = target: Peroxisome proliferator-activated receptor gamma (Homo sapiens) (UniProt P37231); assay: qHTS assay to identify small molecule antagonists of the peroxisome proliferator-activated receptor gamma (PPARg) signaling pathway (AID 743191); conditions: HEK293H PPARg-UAS-bla, beta-lactamase ratio, antagonist, 17 h; ratio activity, negative = inhibition: at 62.6 µM (top of the series) unless noted; note: nearly all actives have a fitted effect of over 30% in size; note: potency is the fitted concentration of half-maximal effect; for ratio activity, negative = inhibition: % is set by controls: 0 for no effect and ±100 for the full control effect
# Method in brief: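 GeneBLAzer PPARg UAS-bla HEK293H cells carrying a UAS-driven beta-lactamase reporter were plated at 3000 cells/well, preincubated 5 h at 37C, then given compound for 17 h at 37C; LiveBLAzer B/G FRET substrate was read after 1 h at room temperature.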
# [2] = qHTS assay for small molecule agonists of the antioxidant response element (ARE) signaling pathway (AID 743202; active = well fitted activation curve with a large enough effect in the signal ratio in the repeat runs, not every such curve was filed as active; inconclusive = weak or mixed curves, or effect the other way; inactive = no such curve, though single readings can be large or run the other way; the % refers to the signal ratio; note: potency is the fitted concentration of half-maximal effect; for activation: % is set by controls: 0 for no effect and ±100 for the full control effect); conditions: HepG2 ARE-bla reporter, beta-lactamase FRET, 16 h; activation: at 73.3 µM (top of the series) unless noted
# Method in brief: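 Steps: seed ARE-bla HepG2 cells (2,000/well); incubate 5 h at 37 C; add compounds by pin tool; incubate 16 h at 37 C; add FRET substrate; read fluorescence after 2 h at RT.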
# [3] = target: Peroxisome proliferator-activated receptor delta (Homo sapiens) (UniProt Q03181); assay: qHTS assay to identify small molecule agonists of the peroxisome proliferator-activated receptor delta (PPARd) signaling pathway (AID 743212); conditions: HEK293H PPARd-UAS-bla, beta-lactamase FRET ratio, 17 h; activation: at 62.6 µM (top of the series) unless noted; note: potency is the fitted concentration of half-maximal effect
# Method in brief: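 Cells expressing a UAS-driven beta-lactamase reporter (PPARd-bla HEK293H) were given test compounds after a 5 h settle and kept at 37 C. Reporter activity was then measured as FRET fluorescence using LiveBLAzer B/G substrate.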
# [4] = target: Bile acid receptor (Homo sapiens) (UniProt Q96RI1); assay: qHTS assay to identify small molecule antagonists of the farnesoid-X-receptor (FXR) signaling pathway (AID 743217; active = well fitted inhibition curve with a large enough effect in the signal ratio in the repeat runs, not every such curve was filed as active; inconclusive = weak or mixed curves, or effect the other way; inactive = no such curve, though single readings can be large or run the other way; the % refers to the signal ratio; note: potency is the fitted concentration of half-maximal effect); conditions: HEK293T FXR-UAS-bla, beta-lactamase ratio, CDCA-stimulated, 16 h; activity change, negative = inhibition: at 62.6 µM (top of the series) unless noted
# Method in brief: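 Screen of the Tox21 10K library in quantitative HTS format using FXR-UAS-bla HEK 293T reporter cells. Agonist chenodeoxycholic acid, 50 uM final, added with compounds; 16 h incubation at 37 °C; beta-lactamase FRET fluorescence measured.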
# [5] = target: Vitamin D3 receptor (Homo sapiens) (UniProt P11473); assay: qHTS assay to identify small molecule agonists of the vitamin D receptor (VDR) signaling pathway (AID 743222); conditions: HEK293T VDR-UAS-bla, beta-lactamase FRET ratio, 16 h; activation: at 63.5 µM (top of the series) unless noted; note: potency is the fitted concentration of half-maximal effect; for activation: % is set by controls: 0 for no effect and ±100 for the full control effect
# Method in brief: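 Fluorescence from cleaved LiveBLAzer B/G FRET substrate served as readout. VDR-bla cells had been treated 16 h at 37C with test compounds in DMSO, following a 4 h settling period, and substrate was loaded for 2 h at RT.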
# [6] = target: Vitamin D3 receptor (Homo sapiens) (UniProt P11473); assay: qHTS assay to identify small molecule antagonists of the vitamin D receptor (VDR) signaling pathway (AID 743223; active = well fitted inhibition curve with a large enough effect in the signal ratio in the repeat runs, not every such curve was filed as active; inconclusive = weak or mixed curves, or effect the other way; inactive = no such curve, though single readings can be large or run the other way; the % refers to the signal ratio; note: % is set by controls: 0 for no effect and ±100 for the full control effect); conditions: VDR-UAS-bla HEK293T, beta-lactamase FRET ratio, 16 h; activity change, negative = inhibition: at 61 µM (top of the series) unless noted
# Method in brief: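 Cells carrying a VDR-driven beta-lactamase reporter (VDR-bla) were co-treated with compound and 3 nM final 1alpha,25-dihydroxyvitamin D3 for 16 h at 37C; reporter activity was measured as FRET substrate fluorescence after 2 h at room temperature.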
# [7] = qHTS assay to identify small molecule antagonists of the vitamin D receptor (VDR) signaling pathway - cell viability counter screen (AID 743225; active = well fitted curve in the direction sought with a large enough effect in the repeat runs; inconclusive = weak or mixed curves; inactive = no such curve, though single readings can be large; an effect the other way counts as inactive or inconclusive; note: potency is the fitted concentration of half-maximal effect; nearly all actives have a fitted effect of over 50% in size); conditions: VDR-bla HEK293T viability, CellTiter-Glo luminescence, 16 h; viability change, negative = cytotoxic: at 61 µM (top of the series) unless noted
# Method in brief: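 HEK293T VDR-bla; cpd + 1a,25-(OH)2D3 3 nM final, 16 h 37C/5% CO2; B/G FRET substrate 2 h RT; then CellTiter-Glo 30 min RT, luminescence.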
# [8] = qHTS assay for small molecule activators of the heat shock response signaling pathway - cell viability counter screen (AID 743209; active = well fitted curve in the direction sought with a large enough effect in the repeat runs; inconclusive = weak or mixed curves; inactive = no such curve, though single readings can be large; an effect the other way counts as inactive or inconclusive; note: potency is the fitted concentration of half-maximal effect; nearly all actives have a fitted effect of over 50% in size); conditions: HSE-bla HeLa viability, CellTiter-Glo luminescence, 5 h; activity change, negative = cytotoxicity: at 62.6 µM (top of the series) unless noted
# Method in brief: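 Viability of HSE-bla HeLa cells is measured with CellTiter-Glo in the wells already used for the reporter read. Compound exposure lasts 5 h at 37 C, and luminescence is read after 30 min at room temperature.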
# [9] = qHTS assay for small molecule activators of the heat shock response signaling pathway (AID 743210; active = well fitted activation curve with a large enough effect in the signal ratio in the repeat runs, with a control signal flat, not every such curve was filed as active; inconclusive = weak or mixed curves; the % refers to the signal ratio; note: potency is the fitted concentration of half-maximal effect); conditions: HeLa HSE-bla reporter, beta-lactamase ratio, 5 h; activation: at 62.6 µM (top of the series)
# Method in brief: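 Activation of heat shock element-controlled beta-lactamase expression is measured in HeLa cells by LiveBLAzer FRET fluorescence, with compound exposure lasting 5 h at 37 C and substrate loading 2.5 h at room temperature.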
# [10] = qHTS assay to identify small molecule antagonists of the peroxisome proliferator-activated receptor delta (PPARd) signaling pathway - cell viability counter screen (AID 743213; active = well fitted curve in the direction sought with a large enough effect in the repeat runs; inconclusive = weak or mixed curves; inactive = no such curve, though single readings can be large; an effect the other way counts as inactive or inconclusive; note: % is set by controls: 0 for no effect and ±100 for the full control effect; nearly all actives have a fitted effect of over 50% in size); conditions: PPARd-bla HEK293H viability, CellTiter-Glo luminescence, 17 h; viability change, negative = cytotoxic: at 62 µM (top of the series) unless noted
# Method in brief: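 PPARd-bla HEK293H cells were treated with compounds plus agonist L165041 (300 nM final) for 17 h at 37 C. Viability was then read in the same wells by CellTiter-Glo luminescence after 30 min at room temperature.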
# [11] = qHTS assay to identify small molecule agonists of the farnesoid-X-receptor (FXR) signaling pathway - cell viability counter screen (AID 743218; active = well fitted curve in the direction sought with a large enough effect in the repeat runs; inconclusive = weak or mixed curves; inactive = no such curve, though single readings can be large; an effect the other way counts as inactive or inconclusive; note: % is set by controls: 0 for no effect and ±100 for the full control effect; nearly all actives have a fitted effect of over 45% in size); conditions: FXR-bla HEK293T viability, CellTiter-Glo luminescence, 16 h; viability change, negative = cytotoxic: at 62.6 µM (top of the series) unless noted
# Method in brief: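 Viability of FXR-bla HEK 293T cells is measured by ATP-based CellTiter-Glo luminescence following 16 h compound treatment at 37 C and a prior 2 h room-temperature beta-lactamase substrate step.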
# [12] = qHTS assay for small molecule agonists of the antioxidant response element (ARE) signaling pathway - cell viability counter screen (AID 743203); conditions: ARE-bla HepG2 viability, CellTiter-Glo luminescence, 16 h; viability change, negative = cytotoxic: at 73.3 µM (top of the series); note: potency is the fitted concentration of half-maximal effect; nearly all actives have a fitted effect of over 55% in size
# Method in brief: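 Viability counter screen: stably transfected ARE-bla HepG2 line, 16 hrs compound exposure at 37C/5% CO2, ATP-based CellTiter-Glo luminescence measured in the reporter wells.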
# [13] = qHTS assay to identify small molecule agonists of the peroxisome proliferator-activated receptor delta (PPARd) signaling pathway - cell viability counter screen (AID 743211; active = well fitted curve in the direction sought with a large enough effect in the repeat runs; inconclusive = weak or mixed curves; inactive = no such curve, though single readings can be large; an effect the other way counts as inactive or inconclusive; note: % is set by controls: 0 for no effect and ±100 for the full control effect; nearly all actives have a fitted effect of over 55% in size); conditions: PPARd-bla HEK293H viability, CellTiter-Glo luminescence, 17 h; activity change, negative = cytotoxicity: at 62.6 µM (top of the series)
# Method in brief: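 Counter screen for cytotoxicity run in parallel with the PPARd reporter screen. Beta-lactamase reporter HEK293H cells exposed to compounds 17 h; ATP-based CellTiter-Glo luminescence quantified viability.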
# [14] = qHTS assay to identify small molecule antagonists of the farnesoid-X-receptor (FXR) signaling pathway - cell viability counter screen (AID 743221; active = well fitted cell-killing curve with a large enough effect in the repeat runs, not every such curve was filed as active; inconclusive = weak or mixed curves, or effect the other way; inactive = no such curve, though single readings can be large or run the other way; note: potency is the fitted concentration of half-maximal effect; nearly all actives have a fitted effect of over 50% in size); conditions: FXR-bla HEK293T viability, CellTiter-Glo luminescence, 16 h; activity change, negative = cytotoxicity: at 62.6 µM (top of the series)
# Method in brief: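 Multiplexed counter screen: viability of FXR-bla HEK 293T cells under agonist stimulation by chenodeoxycholic acid (50 uM, final) and test compound for 16 h at 37 C, measured by CellTiter-Glo luminescence in the reporter wells.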
# [15] = target: Peroxisome proliferator-activated receptor delta (Homo sapiens) (UniProt Q03181); assay: qHTS assay to identify small molecule antagonists of the peroxisome proliferator-activated receptor delta (PPARd) signaling pathway (AID 743215; active = well fitted inhibition curve with a large enough effect in the signal ratio in the repeat runs, not every such curve was filed as active; inconclusive = weak or mixed curves, or effect the other way; inactive = no such curve, though single readings can be large or run the other way; the % refers to the signal ratio;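 note: cells stimulated with agonist L165041 at 300 nM final during compound exposure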; note: potency is the fitted concentration of half-maximal effect); conditions: HEK293H PPARd-UAS-bla, beta-lactamase FRET ratio, antagonist, 17 h; ratio activity, negative = inhibition: at 62 µM (top of the series) unless noted
# Method in brief: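 Plated HEK293H PPARd-bla cells rested 5 h at 37 C and 5% CO2. Compound, then agonist L165041 at 300 nM final, was added; 17 h at 37 C followed. Substrate loading, 2 h room temperature, fluorescence measured.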
# Tags give direction and shape of the fitted curve or compound fluorescence and quenching.
# Sequence of UniProt Q96RI1 (Q96RI1 whole entry, looked up): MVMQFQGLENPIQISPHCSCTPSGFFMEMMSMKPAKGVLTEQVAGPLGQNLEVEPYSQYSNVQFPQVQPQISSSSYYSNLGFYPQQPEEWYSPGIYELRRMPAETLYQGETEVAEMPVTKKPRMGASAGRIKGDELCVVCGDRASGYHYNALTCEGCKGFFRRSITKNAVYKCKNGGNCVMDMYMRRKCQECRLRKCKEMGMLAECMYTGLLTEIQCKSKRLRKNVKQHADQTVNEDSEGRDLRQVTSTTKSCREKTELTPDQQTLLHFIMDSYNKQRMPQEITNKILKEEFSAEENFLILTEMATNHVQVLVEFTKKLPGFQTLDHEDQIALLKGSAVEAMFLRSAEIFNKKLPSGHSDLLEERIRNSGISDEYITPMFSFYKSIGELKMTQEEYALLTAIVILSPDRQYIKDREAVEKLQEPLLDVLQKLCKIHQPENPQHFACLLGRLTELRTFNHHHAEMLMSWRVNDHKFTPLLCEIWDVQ
# Sequence of UniProt P11473 (P11473 whole entry, looked up): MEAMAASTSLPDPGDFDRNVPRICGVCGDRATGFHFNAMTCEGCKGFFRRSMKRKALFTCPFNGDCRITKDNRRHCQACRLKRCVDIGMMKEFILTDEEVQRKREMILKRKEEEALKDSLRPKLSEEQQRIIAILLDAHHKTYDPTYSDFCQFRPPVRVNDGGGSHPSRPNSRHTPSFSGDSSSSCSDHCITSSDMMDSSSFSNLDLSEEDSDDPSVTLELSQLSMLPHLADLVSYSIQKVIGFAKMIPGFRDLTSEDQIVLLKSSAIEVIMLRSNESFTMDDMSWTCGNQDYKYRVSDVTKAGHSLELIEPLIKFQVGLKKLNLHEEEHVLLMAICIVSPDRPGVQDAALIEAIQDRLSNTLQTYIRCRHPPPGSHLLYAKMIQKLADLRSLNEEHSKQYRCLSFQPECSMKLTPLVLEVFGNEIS
# Sequence of UniProt Q03181 (Q03181 whole entry, looked up): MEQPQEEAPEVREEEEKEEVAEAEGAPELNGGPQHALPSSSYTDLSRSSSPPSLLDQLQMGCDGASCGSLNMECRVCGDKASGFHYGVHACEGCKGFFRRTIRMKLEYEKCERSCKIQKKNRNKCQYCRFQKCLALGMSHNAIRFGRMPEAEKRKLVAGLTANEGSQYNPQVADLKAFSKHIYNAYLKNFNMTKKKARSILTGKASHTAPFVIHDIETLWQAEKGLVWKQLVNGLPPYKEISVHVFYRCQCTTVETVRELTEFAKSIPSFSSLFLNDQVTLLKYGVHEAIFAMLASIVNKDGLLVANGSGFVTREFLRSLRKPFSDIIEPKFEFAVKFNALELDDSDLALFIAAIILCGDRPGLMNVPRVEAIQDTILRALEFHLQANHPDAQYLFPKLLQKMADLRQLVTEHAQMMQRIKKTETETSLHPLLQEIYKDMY
# Sequence of UniProt P37231 (P37231 whole entry, looked up): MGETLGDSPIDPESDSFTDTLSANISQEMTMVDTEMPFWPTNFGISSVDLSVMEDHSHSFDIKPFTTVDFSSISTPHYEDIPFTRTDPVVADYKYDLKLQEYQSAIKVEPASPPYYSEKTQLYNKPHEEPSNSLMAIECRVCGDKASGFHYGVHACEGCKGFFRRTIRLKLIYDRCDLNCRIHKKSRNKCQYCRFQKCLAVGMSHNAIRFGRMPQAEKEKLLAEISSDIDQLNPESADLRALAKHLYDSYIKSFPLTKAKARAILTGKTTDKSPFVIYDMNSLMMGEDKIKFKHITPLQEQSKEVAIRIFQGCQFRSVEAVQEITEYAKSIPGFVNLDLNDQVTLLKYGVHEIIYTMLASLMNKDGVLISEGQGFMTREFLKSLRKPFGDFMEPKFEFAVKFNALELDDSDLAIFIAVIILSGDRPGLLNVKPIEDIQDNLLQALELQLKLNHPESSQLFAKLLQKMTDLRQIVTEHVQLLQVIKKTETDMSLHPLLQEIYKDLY
smiles,measurement,setting,value
CC(C)(C)NC(=O)[C@H]1CC[C@H]2[C@@H]3CC[C@H]4NC(=O)C=C[C@]4(C)[C@H]3CC[C@]12C,"ratio activity, negative = inhibition",[1],inconclusive: 1.8% and inconclusive: 21.7% and inconclusive: 15.8%
same,Potency,[2],active: 53.9 µM and inconclusive: 54.5 µM
same,activation,[2],inconclusive: 26.6%
same,Potency,[3],"inconclusive: 8.62 µM [rising, partial curve, poor fit]"
same,Potency,[4],"inconclusive: 54.4 µM and inconclusive: 30.9 µM [inhibitor, partial curve, poor fit] and inconclusive: 21.1 µM [inhibitor, partial curve]"
same,Potency,[5],"inconclusive: 6.84 µM [fluorescent, full curve]"
same,activation,[5],inconclusive: -11.3%
same,"activity change, negative = inhibition",[6],inconclusive: -9.66% and inconclusive: 25.8% and inconclusive: 34.6% [activator]
same,Potency,[7],"inconclusive: 0.195 µM [cytotoxic, single point]"
SCCCCCCCCS,"ratio activity, negative = inhibition",[1],inconclusive: 21.7%
same,Potency,[2],"inconclusive: 43.3 µM [falling, partial curve]"
same,Potency,[8],"inconclusive: 61.6 µM [cytotoxic, partial curve, poor fit]"
same,Potency,[9],"inconclusive: 61.6 µM [falling, single point]"
same,Potency,[10],inactive
same,Potency,[11],inactive
CC(C)(C)c1cccc(C(C)(C)C)c1O,"ratio activity, negative = inhibition",[1],inconclusive: 13%
same,activation,[2],inconclusive: 21.6%
same,Potency,[8],"inconclusive: 60.3 µM [cytotoxic, single point]"
CCCCCCOc1cc(C)c(O)c(C)c1C,Potency,[1],"inconclusive: 12.4 µM [fluorescent, partial curve, poor fit]"
same,Potency,[2],inconclusive: 61.9 µM [single point]
same,Potency,[12],"inconclusive: 69.4 µM [cytotoxic, single point]"
same,Potency,[8],"inconclusive: 55.6 µM [cytotoxic, single point]"
same,Potency,[9],inconclusive: 60 µM
same,Potency,[13],inactive
same,Potency,[14],"inconclusive: 55.6 µM [falling, single point]"
same,Potency,[7],active: 35.1 µM
CC(C)Cc1ccccc1,Potency,[1],inactive
same,"ratio activity, negative = inhibition",[15],inconclusive: 1.65%
same,"viability change, negative = cytotoxic",[11],inconclusive: 31.9%
OCCO,Potency,[1],inactive
same,Potency,[15],"inconclusive: 9.51 µM [fluorescent, partial curve, poor fit]"
same,Potency,[5],inactive
